T1: human BCMA on cells (CHO-hBCMA, U266, RPMI8226) (human, UniProt Q02223 1-184)
T1 construct: whole, on cells; also called BCMA protein on cell membranes
T1 sequence (looked up): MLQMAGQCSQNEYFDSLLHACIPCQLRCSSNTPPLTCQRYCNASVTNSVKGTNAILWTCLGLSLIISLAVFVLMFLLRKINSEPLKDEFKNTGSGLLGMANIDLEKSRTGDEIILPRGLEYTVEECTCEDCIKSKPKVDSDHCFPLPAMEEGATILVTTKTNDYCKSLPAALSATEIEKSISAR

T2: Human TACI protein (human, UniProt O14836 1-165, limits assumed)
T2 sequence (looked up): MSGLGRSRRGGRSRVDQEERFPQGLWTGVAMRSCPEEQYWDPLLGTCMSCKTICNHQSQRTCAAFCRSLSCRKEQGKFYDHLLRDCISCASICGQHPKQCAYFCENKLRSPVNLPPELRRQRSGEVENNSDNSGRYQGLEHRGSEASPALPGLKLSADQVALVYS

T3: Human BAFFR protein (human, UniProt Q96RJ3 7-71, limits assumed)
T3 sequence (looked up): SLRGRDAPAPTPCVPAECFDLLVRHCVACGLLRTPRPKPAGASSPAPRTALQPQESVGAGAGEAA

T4: human BCMA-His protein (ACRO, product catalog No. BCA-H522y) (human, UniProt Q02223 1-54, biotin-conjugated in the assays of Example 5 and 6.1 (sites not given))
T4 construct: Bought protein; The biotin-conjugated form of the same product is written under this molecule; also called recombinant BCMA-His protein; biotin-conjugated recombinant BCMA-His protein; not shown: His tag
T4 sequence (looked up): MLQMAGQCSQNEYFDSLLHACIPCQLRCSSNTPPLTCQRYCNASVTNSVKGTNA


How the values were obtained:
[1] = target: T1, human BCMA on cells (CHO-hBCMA, U266, …); experiment: flow cytometry on U266 cells
[2] = target: T1, human BCMA on cells (CHO-hBCMA, U266, …); experiment: flow cytometry on CHO-hBCMA cells
[3] = target: T2, Human TACI protein; experiment: SPR (Biacore T200), antibody captured by anti-hIgG (Fc), TACI as analyte
[4] = target: T3, Human BAFFR protein; experiment: SPR (Biacore T200), antibody captured by anti-hIgG (Fc), BAFFR as analyte
[5] = target: T4, human BCMA-His protein (ACRO, product …); experiment: SPR (Biacore T200), antibody captured by anti-hIgG (Fc), BCMA-His as analyte, 1:1 model
[6] = target: T4, human BCMA-His protein (ACRO, product …); experiment: competitive ELISA: antibody pre-mixed with biotin-BCMA-His, binding to coated APRIL
[7] = target: T4, human BCMA-His protein (ACRO, product …); experiment: indirect ELISA, 2 µg/mL BCMA-His coated

EC50 [1]	EC50 [2]	binding result [3]	binding result [4]	Kd [5]	koff [5]	kon [5]	IC50 [6]	EC50 [7]	Binder
2.58 nM	1.91 nM	no binding (tested: 100 nM)	no binding (tested: 100 nM)	0.496 nM	0.000572 s⁻¹	1.15e+06 M⁻¹ s⁻¹	0.38 nM	0.21 nM	1B5-Fc (Fc fusion, also called anti-human BCMA VHH-Fc chimeric antibody 1B5-Fc) QVQLVESGGGSVQAGGSLRLSCAASGVTFNSDCMGWFRQAPGKEREAVARIETGYGGTLYADSVKGRFTISRDNAKKTVYLQMNSLKFEDTAMYYCAAKRSWCSPTWWREVDYNYWGQGTLVTVSS[no letters for human IgG1 Fc]
3.82 nM	3.39 nM	no binding (tested: 100 nM)	no binding (tested: 100 nM)						1B11-Fc (Fc fusion, also called anti-human BCMA VHH-Fc chimeric antibody 1B11-Fc) QVQLVESGGGSVPAGGSMRLSCAASGYRNPMVCMGWFRQAPGKKREGVALITTDGGTTLYADSVKGRFTISQDNAKNTVYLQMNNLKPEDTAMYTCAADDRPWCMTVGVRTEDYDTWGQGTLVTVSS[no letters for human IgG1 Fc]
3.86 nM	1.76 nM	no binding (tested: 100 nM)	no binding (tested: 100 nM)	0.121 nM	0.000432 s⁻¹	3.57e+06 M⁻¹ s⁻¹	0.21 nM	0.22 nM	1A5-Fc (Fc fusion, Expressed in CHO cells, purified on protein A; also called anti-human BCMA VHH-Fc chimeric antibody 1A5-Fc) QVQLVESGGGSVQAGGSLLLSCAASGYTFSPCAMGWFRQAPGKERSLVSWITVDGTTDYADSVKGRFTISRDNAKNMVYLQMTSLEPEDTATYYCNTVYILTPSCRPQPWGPGTQVTVSS[no letters for human IgG1 Fc]

Reference: patent US20230193292A1 (CHIA TAI TIANQING PHARMACEUTICAL GROUP, published 2023)
